Laboratory results published in PubChem BioAssay AID488969 (Vanderbilt High Throughput Screening Facility, 2010).
Over roughly 110,000 compounds, “z-score” has its median near -0.1; the highest 2% begin near 2. The list shows a part of the results.

biological target: Metabotropic glutamate receptor 8 (Rattus norvegicus) (UniProt P70579); experiment: rat mGluR8 modulators via GIRK flux, primary screen, cell-based, thallium flux, HTS (AID 488969); settings: HEK293 rat mGluR8, GIRK (G protein-gated inwardly rectifying potassium channel) thallium flux, FluoZin2; at 10 µM; stronger effect = higher value; submaximal glutamate (EC20) added with thallium
Chain of UniProt P70579 (P70579 whole entry, looked up): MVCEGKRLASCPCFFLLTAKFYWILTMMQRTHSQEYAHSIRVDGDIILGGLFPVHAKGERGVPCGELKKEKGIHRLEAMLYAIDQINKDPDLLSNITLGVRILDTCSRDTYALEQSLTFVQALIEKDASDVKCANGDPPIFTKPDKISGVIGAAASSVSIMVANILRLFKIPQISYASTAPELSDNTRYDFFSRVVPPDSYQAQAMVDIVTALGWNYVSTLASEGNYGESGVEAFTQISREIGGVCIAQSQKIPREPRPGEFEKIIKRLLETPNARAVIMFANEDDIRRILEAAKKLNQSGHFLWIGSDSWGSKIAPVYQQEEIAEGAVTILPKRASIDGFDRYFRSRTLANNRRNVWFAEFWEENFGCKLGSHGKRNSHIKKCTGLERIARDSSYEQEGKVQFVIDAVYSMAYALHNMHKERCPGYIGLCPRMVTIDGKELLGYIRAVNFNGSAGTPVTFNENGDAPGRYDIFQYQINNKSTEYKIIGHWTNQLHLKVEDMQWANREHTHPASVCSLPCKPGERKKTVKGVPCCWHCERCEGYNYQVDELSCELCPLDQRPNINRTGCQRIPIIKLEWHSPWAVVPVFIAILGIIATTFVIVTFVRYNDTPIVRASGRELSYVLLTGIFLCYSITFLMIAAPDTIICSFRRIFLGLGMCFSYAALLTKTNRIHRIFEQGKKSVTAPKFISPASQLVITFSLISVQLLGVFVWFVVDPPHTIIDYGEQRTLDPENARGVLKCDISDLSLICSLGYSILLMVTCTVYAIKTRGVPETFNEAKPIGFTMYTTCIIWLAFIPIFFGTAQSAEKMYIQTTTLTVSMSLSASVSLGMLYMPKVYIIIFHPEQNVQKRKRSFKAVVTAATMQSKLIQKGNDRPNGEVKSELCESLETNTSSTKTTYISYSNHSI

| SMILES | z-score |
| --- | --- |
| NNC(=O)CN1C(c2cccc(Cl)c2)=Nc2ccc(Br)cc2C1c1ccccc1 (centres undefined) | -0.63 |
| N#Cc1nc(-c2ccco2)oc1N1CCN(c2ccccc2)CC1 | -0.599 |
| O=C(COC(=O)c1ccccn1)NC12CC3CC(CC(C3)C1)C2 | -0.209 |
| O=C(CCn1c(=O)oc2ccccc21)Nc1nccs1 | -0.469 |
| O=S(=O)(N1CCOCC1)n1cnc2ccccc21 | -0.00444 |
| COc1ccc(C(=O)OCC(=O)NC(C)(C)C)cc1[N+](=O)[O-] | -0.195 |
| CCCN(CCC)S(=O)(=O)c1ccc(C(=O)Nc2nc(-c3ccccc3)c(C(=O)OCC)s2)cc1 | -0.243 |
| C=CCn1c(SCc2nc3cc(C(=O)OC)ccc3c(=O)[nH]2)nc2sc(CC)cc2c1=O | -0.336 |
| COCCn1c(-c2ccsc2)nc2c1c(=O)[nH]c(=O)n2CC(C)C | -0.162 |
| Nc1c(-c2ccccc2)cnn1-c1cccc(C(F)(F)F)c1 | 0.455 |
| CCCOc1nc2c(c(=O)n(C)c(=O)n2C)n1Cc1cccc2ccccc12 | -1.58 |
| Cc1ccc(NS(=O)(=O)c2cc(C(=O)O)ccc2Cl)c(C)c1 | 0.297 |
| Cc1[nH]c2ccccc2c(=O)c1SC(F)(F)C(F)C(F)(F)F (centres undefined) | -0.124 |
| COc1cc(-c2ccc(NC(=O)c3ccc(C)cc3)c(OC)c2)ccc1NC(=O)c1ccc(C)cc1 | 0.305 |
| CC(C)NC(=O)C1(c2ccccc2)CC1(Cl)Cl (centres undefined) | -0.174 |
| COc1ccc2[nH]c(=O)c(CN(C)C(=O)COc3ccccc3)cc2c1 | -0.067 |
| CCCC(C)C(=O)Nc1ccc(C(N)=O)cc1 (centres undefined) | 0.643 |
| COC(=O)c1ccc2c(c1O)C(=O)c1ccccc1C2=O | -0.118 |
| CCOC(=O)C(Cc1ccc(NC(=O)/C(=C/c2ccc(OC(C)=O)cc2)NC(C)=O)cc1)N1C(=O)c2ccccc2C1=O (centres undefined) | -0.122 |
| N#CC1=C(N)OC2=C(CCc3ccccc32)C1c1ccccc1Cl (centres undefined) | -0.697 |
| COC(=O)CC1=C(C(=O)OC)C(c2cccc(OCC(N)=O)c2)C(C#N)=C(N)O1 (centres undefined) | 0.281 |
| O=C(O)C1C2C=CC(C2)C1C(=O)NC(c1ccccc1)c1ccccc1 (centres undefined) | -0.597 |
| CCc1ccc(CNc2ccc(N3CCN(C(C)=O)CC3)cc2)cc1 | 0.968 |
| Cn1ncc2c(NNC(=O)c3ccccc3Cl)ncnc21 | 0.3 |
| CCCCSC(=S)N(C)C1CCS(=O)(=O)C1 (centres undefined) | -0.328 |
| CCOc1ccc(NC(=NCc2ccc3c(c2)OCO3)SC2CC(=O)N(c3ccccc3)C2=O)cc1 (centres undefined) | 0.522 |
| CC(C)Nc1nc(Oc2cccc(Cl)c2Cl)cc(C(F)(F)F)n1 | 0.0496 |

| SMILES | z-score |
| --- | --- |
| Cc1cnn(-c2cc(N/N=C/c3ccc(F)cc3)ncn2)c1 | 0.269 |
| CCNC(=O)CN(c1ccccc1OC)S(=O)(=O)c1cccs1 | -0.183 |
| CCOc1cc(NC(=O)CC(C)C)c(OCC)cc1NC(=O)CCn1nnc2ccccc21 | -0.418 |
| Cc1ccc(N2C(=O)C3C(c4ccccc4)(C2=O)C3(c2ccccc2)c2ccccc2)cc1 (centres undefined) | 0.0494 |
| CN(C)/C=C1/Sc2ccccc2C1=O | -0.0219 |
| CC(C(=O)O)n1nc2ccccc2n1 (centres undefined) | -0.97 |
| CS(=O)(=O)Nc1nnc(SCC(=O)Nc2cccc([N+](=O)[O-])c2)s1 | 0.477 |
| O=C(/C=C/c1ccc2c(c1)OCO2)Nc1nc(-c2ccccc2)cs1 | -0.421 |
| CCOC(=O)c1cnc2ccc(C(=O)OC)cc2c1NCc1ccco1 | 0.0624 |
| CCC(=O)N1CC2(CC(c3cccc([N+](=O)[O-])c3)=NO2)C[C@H]1C(=O)NCC(N)=O (some centres undefined) | 0.0194 |
| COCc1cc(C)nc(Nc2ccc(C)cc2C)c1C#N | -0.225 |
| CC(C)CC(NC(=O)c1ccc(Cl)cc1)C(=O)OCc1cc([N+](=O)[O-])cc2c1OCOC2 (centres undefined) | -0.288 |
| CCOc1cc(CNCCO)c(Cl)cc1OCC(=O)NCCc1ccccc1 | -0.0763 |
| CCOc1ccc(S(=O)(=O)Nc2nc3cc(OC)ccc3s2)cc1 | -0.168 |
| Cc1sc2nc(CN3CCCCC3)nc(Cl)c2c1C | -0.502 |
| Cc1ccc(NS(=O)(=O)c2ccc(NC(=O)c3ccc(Br)o3)cc2)c(C)c1 | 0.578 |
| N#Cc1c(NC(=O)CSc2nc(-c3ccco3)cc(C(F)(F)F)n2)sc2c1CCCC2 | 0.333 |
| COC(=O)c1cc(-c2ccccc2)n[nH]1 | 0.823 |
| COc1ccc(C)cc1S(=O)(=O)N(C)CC(=O)Nc1ccc2c(c1)OCCO2 | -0.335 |
| COc1ccc(/C=C(/NC(=O)c2ccccc2)C(=O)N/N=C/c2sccc2C)cc1 | -0.284 |
| COC(=O)CSc1ncccc1-c1nc2ccccc2[nH]1 | -0.428 |
| CCSc1nnc(NC(=O)CSc2nnc(-c3c[nH]c4ccccc34)n2C)s1 | -0.196 |
| O=C(C1=C[C@@H]2[C@H]3C(=O)N(c4ccc(Cl)cc4)C(=O)[C@H]3[C@@H](C(=O)c3ccc(Cl)cc3)N2C=C1)c1ccccc1 | 0.212 |
| O=C(/C=C1\NC2(CCCC2)Cc2ccccc21)C(=O)N/N=C/c1ccccc1O | -0.29 |
| COc1ccccc1N(C)S(=O)(=O)c1ccc(C(=O)OCC(=O)NCCC2=CCCCC2)cc1 | 0.0923 |
| CCOC(=O)N1CCN(C(=O)CSc2nnc(CNC(=O)c3ccccc3F)o2)CC1 | -0.16 |
| Cc1cccc(CS(=O)(=O)Cc2ccc(C(=O)O)o2)c1 | 0.861 |
